Out of some 310,000 compounds screened, about 2,200 (0.71%) showed an effect of 50% or more. Effects have a minus sign here. The list shows a part of the results.
biological target: human ether-à-go-go-related gene (hERG) potassium channel (human, UniProt Q12809); test: primary screen, population patch clamp on CHO cells stably expressing hERG
Sequence (Q12809 whole entry, looked up): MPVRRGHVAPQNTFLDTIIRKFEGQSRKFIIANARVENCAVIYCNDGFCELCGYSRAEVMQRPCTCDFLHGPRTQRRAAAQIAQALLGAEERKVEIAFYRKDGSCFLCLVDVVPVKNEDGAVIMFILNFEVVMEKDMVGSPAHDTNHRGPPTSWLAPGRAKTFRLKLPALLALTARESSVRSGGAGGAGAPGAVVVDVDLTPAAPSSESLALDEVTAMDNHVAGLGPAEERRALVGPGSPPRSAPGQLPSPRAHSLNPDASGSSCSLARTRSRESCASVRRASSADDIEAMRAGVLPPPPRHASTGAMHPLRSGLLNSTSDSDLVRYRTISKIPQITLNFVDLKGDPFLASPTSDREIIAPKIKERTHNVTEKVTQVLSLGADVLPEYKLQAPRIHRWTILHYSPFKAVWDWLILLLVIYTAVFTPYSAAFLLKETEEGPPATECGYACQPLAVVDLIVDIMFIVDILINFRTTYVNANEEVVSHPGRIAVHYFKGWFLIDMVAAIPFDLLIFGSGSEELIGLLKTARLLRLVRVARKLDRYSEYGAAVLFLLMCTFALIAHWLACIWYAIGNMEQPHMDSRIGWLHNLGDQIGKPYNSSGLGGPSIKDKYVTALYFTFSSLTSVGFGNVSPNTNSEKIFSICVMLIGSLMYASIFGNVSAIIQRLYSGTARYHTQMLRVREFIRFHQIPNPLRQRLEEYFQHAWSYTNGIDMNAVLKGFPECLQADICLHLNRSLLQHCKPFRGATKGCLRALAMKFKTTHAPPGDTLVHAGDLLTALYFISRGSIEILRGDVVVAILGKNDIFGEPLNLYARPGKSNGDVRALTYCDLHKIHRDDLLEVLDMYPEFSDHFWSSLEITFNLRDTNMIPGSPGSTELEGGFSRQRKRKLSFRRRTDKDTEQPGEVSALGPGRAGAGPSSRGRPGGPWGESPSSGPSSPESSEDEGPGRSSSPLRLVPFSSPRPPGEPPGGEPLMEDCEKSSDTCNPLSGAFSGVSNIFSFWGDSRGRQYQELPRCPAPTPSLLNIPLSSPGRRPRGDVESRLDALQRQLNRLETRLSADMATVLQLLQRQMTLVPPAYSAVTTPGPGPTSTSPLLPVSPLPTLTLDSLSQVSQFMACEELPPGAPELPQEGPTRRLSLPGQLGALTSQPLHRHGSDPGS

| Structure (SMILES) | hERG current change (%, negative = inhibition) at 1uM [%] |
| --- | --- |
| CCN(CC)CCNC(=O)c1ccc(NC(=O)c2ccc(F)cc2F)cc1.Cl | -10.8 |
| COc1ccc(Oc2c(-c3ccc(O)cc3O)n[nH]c2C)cc1 | 11.1 |
| COc1ccc(COC(=O)c2ccc(Br)c(S(=O)(=O)N3CCOCC3)c2)cc1F | 15.9 |
| COC(=O)c1sc(N2CCN(c3ccc(Cl)cc3)CC2)nc1N | 12.6 |
| CN(Cc1nccs1)C(=O)C1CCC(=O)N(CCc2cccc(F)c2)C1 (centres unmarked) | 12.5 |
| Cc1ccccc1OCCC(=O)OCC(=O)Nc1ccc(N2CCOCC2)cc1 | -9.5 |
| O=C1CNC(=O)/C(=C\c2ccccc2)N1 | 10.7 |
| O=C(O)c1ccc(S(=O)(=O)N2CCC(Cc3ccccc3)CC2)cc1 | 18.6 |
| C=C(C)COc1ccc(-c2n[nH]c(C)c2-c2ccc(Br)cc2)c(O)c1 | 1.05 |
| COC(=O)C(=Cc1ccc(-c2ccsc2C(=O)OC)o1)C(=O)OC | 13.9 |
| CCN1CCN(Cc2c(O)ccc3c(C)cc(=O)oc23)CC1 | 27.3 |
| Cc1c(Cc2ccccc2)c(NCCCO)n2c(nc3ccccc32)c1C#N | 3.12 |
| CN(Cc1ccc(OC(F)F)cc1)C(=O)c1ccc2nccnc2c1 | -12.1 |
| COc1c(OC(C)=O)ccc(/C=C/c2ccc3ccccc3n2)c1[N+](=O)[O-] | -4.88 |
| CC(OC(=O)c1ccccc1Br)C(=O)Nc1nc(-c2cccc([N+](=O)[O-])c2)cs1 (centres unmarked) | 0.149 |
| CCN(CC)S(=O)(=O)c1ccc(-c2nnc(SC)o2)cc1 | 4.8 |
| Cc1c(C(=O)N/N=C/c2ccccc2)[nH]c2ccc(Cl)cc12 | 18.2 |
| CCCC(=O)NCCc1nc2ccccc2n1CCC | 10.7 |
| O=C(CCN1CCOCC1)NNC(=S)NC(=O)c1ccc(Br)cc1 | 32.1 |
| O=C(Nc1ccc(S(=O)(=O)N2CCCC2)cc1)c1ccc(CN2CCc3ccccc3C2)cc1 | 8.1 |
| O=C(Nc1cccc(C(=O)Nc2ccc(Br)cc2)c1)c1ccccc1 | 11.1 |
| COc1ccc(N2CCN(S(=O)(=O)c3cc4c(cc3C)N(C(C)=O)CCO4)CC2)cc1 | 16.9 |
| O=C(O)c1cccc(NC(=S)NC(=O)c2ccc3ccccc3c2)c1 | 10.4 |

| Structure (SMILES) | hERG current change (%, negative = inhibition) at 1uM [%] |
| --- | --- |
| COc1ccccc1/C=C/C=N/NC(=O)Cc1cccs1 | -3.24 |
| Cc1ccc(C(=O)N2CCCCC2)cc1S(=O)(=O)N1CCOCC1 | 18.1 |
| COc1ccc(C(=O)Nc2ccc(S(=O)(=O)N3CCCC3)cc2)cc1 | 5.44 |
| Cc1ccc(Cn2nnc3c(=O)n(CC(=O)OCc4ccccc4)cnc32)cc1 | 3.03 |
| CCc1ccccc1NC(=O)c1nnn(CC(=O)Nc2ccccc2C)c1N | 6.71 |
| CCC(NC(=O)c1ccc(C#CC2(O)CCCCC2)cc1)C(=O)O (centres unmarked) | 16.3 |
| CCOC(=O)c1[nH]c(C)c(C(=O)N2CCN(c3ccc(OC)cc3)CC2)c1C | 2.74 |
| CN(C)S(=O)(=O)c1cccc(NC(=S)N/N=C/c2cccc(O)c2)c1 | 1.58 |
| Nn1c(COc2ccccc2)nc2ccccc2c1=O | 2.39 |
| O=C(OCc1c(F)cccc1Cl)c1cccc(S(=O)(=O)N2CCOCC2)c1 | -8.43 |
| O=C(COC(=O)CNC(=O)C1CCCCC1)Nc1ccc2ccccc2c1 | -7.85 |
| COc1ccccc1/C=N/NC(=O)c1ccc(-c2ccccc2)cc1 | 5.04 |
| O=C(c1ccccc1)[C@H]1CC=CC[C@H]1C(=O)O | -0.136 |
| Cc1ccc(C(=O)C2C(=O)c3ccccc3C2=O)cc1 | -0.431 |
| CCOC(=O)[C@H]1[C@H]2COc3ccc(C)cc3[C@@H]2N2C(=O)c3ccccc3NC(=O)[C@@]12C | 7.96 |
| COc1ccccc1-n1nc(C(=O)O)c2ccccc2c1=O | 3.3 |
| N#CCSc1nc2scc(-c3cccs3)c2c(=O)n1CCc1ccccc1 | 14.5 |
| CCOc1ccc2nc(NCCCNS(=O)(=O)c3ccc(F)cc3)c(C#N)cc2c1 | 2.62 |
| CCNC(=O)NC(=O)CN(C)c1ccccc1 | 4.36 |
| CC(c1nnc(SCC(=O)N2CC(=O)Nc3ccccc32)n1Cc1ccccc1)N(C)C (centres unmarked) | 2.46 |
| O=C(CC1C(=O)NCCN1Cc1cccc(F)c1)NC1CCC1 (centres unmarked) | -0.463 |
| Cn1c(=O)c2[nH]c(N3CCN(c4ccccn4)CC3)nc2n(C)c1=O | 10 |
| CCOCCCNS(=O)(=O)c1ccc2c(c1)CCN2C(=O)CC | 7.94 |

| Structure (SMILES) | hERG current change (%, negative = inhibition) at 1uM [%] |
| --- | --- |
| O=C(CCC(=O)Nc1ccccc1Cl)NNC(=O)NC1CCCCC1 | -4.24 |
| CCOC(=O)N1CCN(C(=O)C2CCN(Cc3ccc(O)c(OCC)c3)CC2)CC1.O=C(O)C(=O)O | 16.3 |
| Cc1nc2ccc(NS(=O)(=O)c3ccc(Br)cc3)cc2s1 | 8.87 |
| O=C(C[n+]1ccccc1)N/N=C/c1cc(Br)ccc1F.[Cl-] | 5.46 |
| CC(=O)Nc1cccc(NC(=O)C2CC3CCC2C3)c1 (centres unmarked) | -4.6 |
| O=C1Nc2c(c(=O)[nH]c(=O)n2-c2ccc(F)cc2)C1(NS(=O)(=O)c1ccccc1)C(F)(F)F (centres unmarked) | 8.65 |
| CCOc1ccc(N(CC(=O)NCC2CCCO2)S(=O)(=O)c2ccc(OC)c(OC)c2)cc1 (centres unmarked) | 5.13 |
| Nn1c(-c2ccc(F)cc2)nc2ccccc2c1=O | 15.2 |
| CCOc1cc(/C=C2\SC(N3CCCCC3)=NC2=O)ccc1O | 15.2 |
| Cn1c(=O)n(CCCOc2ccc(Cl)cc2)c2ccccc21 | 4.97 |
| COc1ccc(NC(=O)Nc2ccc3nc(C)c(C)nc3c2)cc1 | 12.7 |
| Cc1c(Cl)cccc1NC(=O)c1cc(S(=O)(=O)N2CCOCC2)cn1C | 6.5 |
| COC(=O)CCSc1nc(N2CCOCC2)c2c(c1C#N)CC(C)(C)OC2 | 11.1 |
| Cc1ccc(NC(=O)CSC2=Nc3ccccc3C3CC=NN23)c(C)c1 (centres unmarked) | 3.86 |
| CCNC(=O)COC(=O)CCC(=O)c1cccs1 | 3.16 |
| Cc1cccc(N(CC(=O)NCCc2ccccc2)C(=O)CCC(=O)Nc2ccccn2)c1C | 3.08 |
| CCS(=O)(=O)N1Cc2ccccc2CC1C(=O)Nc1ccc(NC(C)=O)cc1 (centres unmarked) | 12 |
| O=C(NCC1CCCO1)c1cn(Cc2ccccc2)nc1-c1ccc(Cl)cc1 (centres unmarked) | 15.2 |
| COC(=O)c1c(NC(=O)CN2C(=O)C(=O)N(CC(C)C)C2=O)sc2c1CCCCC2 | 7.72 |
| CN1CCN(Cc2c(C(=O)N3CCc4ccccc4C3)nc3ccc(Cl)cn23)CC1 | -13 |
| COCCNC(=O)C1CCN(C(=O)C2CC(=O)N(c3ccc(C)cc3)C2)CC1 (centres unmarked) | 10.2 |
| CCN(CC)c1ncnc2c1cnn2Cc1ccc(C)cc1 | 9.6 |
| Cc1ccc(C)c(NC(=S)N2CCN(S(=O)(=O)c3ccccc3)CC2)c1 | 15.2 |

| Structure (SMILES) | hERG current change (%, negative = inhibition) at 1uM [%] |
| --- | --- |
| O=C(c1ccco1)N1N=C(c2ccc3nccnc3c2)CC1c1ccccc1 (centres unmarked) | -0.0178 |
| Cc1cccc(/C=C2\CS/C(=C\c3cccc(C)c3)C2=O)c1 | 4.28 |
| CCOC(=O)N1CCN(c2c(NCCOC)c(=O)c2=O)CC1 | 10.5 |
| O=C(OCc1ccccc1)c1ccccc1 | 3.88 |
| CCOc1ccc(C(Nc2ccc(C)cc2)P2(=O)OCCCO2)cc1 (centres unmarked) | 4.44 |
| COc1ccc(/C=C/C(=O)NCCCc2ccccc2)cc1 | 1.93 |
| CCc1c(C)nc(N)n2c(SCC(=O)Nc3ccccc3)nnc12 | 14.6 |
| CCC(C)NC(=O)c1cnn2c1NC(c1ccc3c(c1)OCO3)CC2C(F)(F)F (centres unmarked) | 0.913 |
| COc1ccc(C(=O)OCC(=O)NC2CC2)cc1S(=O)(=O)N(C)Cc1ccccc1 | -25.7 |
| CC1CCc2sc(C(=O)N/N=C/C3CCCCC3)cc2C1 (centres unmarked) | 8.03 |
| Cc1cccc(/C(N)=N/OC(=O)c2ccoc2C)c1 | 12.1 |
| COc1ccc(NC(=O)C(=O)NCC2CCCN2S(=O)(=O)c2cc(C)ccc2C)cc1 (centres unmarked) | 10 |
| COc1ccccc1C(=O)NNC(=O)C1CC=CCC1 (centres unmarked) | 18.2 |
| O=C(NCCCC1CCCC1)C1CCC(=O)N(Cc2cccc(F)c2)C1 (centres unmarked) | 8.85 |
| CCOC(=O)C1CCN(S(=O)(=O)c2ccc(C(=O)OC)cc2)CC1 | 2 |
| Cn1c(=O)n(C)c2cc(NC(=O)CSc3ccccc3)ccc21 | 23.4 |
| Cc1cc(=O)[nH]c(SCC(=O)NCc2ccco2)n1 | 16.6 |
| COc1ccc(/C=C(\C#N)C(=O)NCc2cccs2)cc1OC | 2.33 |
| CC(C)(C)c1ccc(C(=O)N2CCN(c3ncccn3)CC2)cc1 | 6.17 |
| COc1ccc(C)cc1NC(=O)NNC(=O)C(C)Oc1ccc([N+](=O)[O-])cc1 (centres unmarked) | -6 |

Source: paper PMC4336329 (PLoS ONE, 2015)
